Test results from the supplement of paper PMC4604168 (melanoma cell lines).
Some of the results follow. Many values rest on one well or one pass, so single values are uncertain.

Key:
Assay in all cases: cell count relative to DMSO control; melanoma cells; higher = more viable cells
Conditions in all cases: library dose: low library concentration; 72 h
WM115 = test system: WM115
WM1716 = test system: WM1716
WM1745 = test system: WM1745
WM3526 = test system: WM3526
WM3619 = test system: WM3619
WM451Lu = test system: WM451Lu
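Note: cell number obtained by counting DAPI-stained nuclei in high-throughput microscope images with image analysis software, screen run in 1,536-well plates.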

SMILES	cell count (WM115) [%]	cell count (WM1716) [%]	cell count (WM1745) [%]	cell count (WM3526) [%]	cell count (WM3619) [%]	cell count (WM451Lu) [%]
CCN(CC)CCNC(=O)c1c(C)[nH]c(/C=C2\C(=O)Nc3ccc(F)cc32)c1C [sunitinib] + O=C(Nc1cccc(Cl)c1)Nc1ncc(CCNc2ncnc3ccsc23)s1 [SNS314] (first compound 0.4 µM, partner dose 0.0008 µM)	64.7	139	83.4	88.5	150	93.5
C[C@]1(O)C[C@@H](c2nc(-c3ccc4ccc(-c5ccccc5)nc4c3)c3c(N)nccn32)C1 + CCN(CC)CCCCNc1ncc2cc(-c3cc(OC)cc(OC)c3)c(NC(=O)NC(C)(C)C)nc2n1 [PD173074] (first compound 0.4 µM, partner dose 0.1 µM)	99.7	113	76.1	77.4	104	67.6
CCN(CC)CCNC(=O)c1c(C)[nH]c(/C=C2\C(=O)Nc3ccc(F)cc32)c1C [sunitinib] + CC(=O)O[C@@]12CO[C@@H]1C[C@H](O)[C@@]1(C)C(=O)[C@H](O)C3=C(C)[C@@H](OC(=O)[C@H](O)[C@@H](NC(=O)OC(C)(C)C)c4ccccc4)C[C@@](O)([C@@H](OC(=O)c4ccccc4)[C@H]21)C3(C)C [Docetaxel] (first compound 0.4 µM, partner dose 0.0001 µM)	70.7	55.5	67.6	48.8	89.4	65.1
COc1cc([C@@H]2c3cc4c(cc3[C@@H](O[C@@H]3O[C@@H]5CO[C@@H](C)O[C@H]5[C@H](O)[C@H]3O)[C@H]3COC(=O)[C@H]23)OCO4)cc(OC)c1O [etoposide] + C[C@]1(O)C[C@@H](c2nc(-c3ccc4ccc(-c5ccccc5)nc4c3)c3c(N)nccn32)C1 [OSI906] (first compound 0.02 µM, partner dose 0.4 µM)	86	85.6	79.2	94	87.2	73.7
C[C@]1(O)C[C@@H](c2nc(-c3ccc4ccc(-c5ccccc5)nc4c3)c3c(N)nccn32)C1 + CO[C@@H]1[C@H](N(C)C(=O)c2ccccc2)C[C@H]2O[C@]1(C)n1c3ccccc3c3c4c(c5c6ccccc6n2c5c31)C(=O)NC4 [Midostaurin] (first compound 0.4 µM, partner dose 0.08 µM)	80.1	89.8	78.5	80.2	69.9	83.5
COc1cc([C@@H]2c3cc4c(cc3[C@@H](O[C@@H]3O[C@@H]5CO[C@@H](C)O[C@H]5[C@H](O)[C@H]3O)[C@H]3COC(=O)[C@H]23)OCO4)cc(OC)c1O [etoposide] + Cn1nnc2c(C(N)=O)ncn2c1=O [temozolomide] (first compound 0.02 µM, partner dose 2 µM)	94	75.7	84.6	89.8	85.1	90.7
COc1cc([C@@H]2c3cc4c(cc3[C@@H](O[C@@H]3O[C@@H]5CO[C@@H](C)O[C@H]5[C@H](O)[C@H]3O)[C@H]3COC(=O)[C@H]23)OCO4)cc(OC)c1O [etoposide] + CCN(CC)CCCCNc1ncc2cc(-c3cc(OC)cc(OC)c3)c(NC(=O)NC(C)(C)C)nc2n1 [PD173074] (first compound 0.02 µM, partner dose 0.1 µM)	77.6	92.4	93.8	120	99.4	108
COc1cc([C@@H]2c3cc4c(cc3[C@@H](O[C@@H]3O[C@@H]5CO[C@@H](C)O[C@H]5[C@H](O)[C@H]3O)[C@H]3COC(=O)[C@H]23)OCO4)cc(OC)c1O [etoposide] + O=C(Nc1cc(C(F)(F)F)cc(C(F)(F)F)c1)c1cc(Cl)ccc1O [IMD0354] (first compound 0.02 µM, partner dose 0.016 µM)	94.1	91.2	102	87.4	112	99.1
COc1cc([C@@H]2c3cc4c(cc3[C@@H](O[C@@H]3O[C@@H]5CO[C@@H](C)O[C@H]5[C@H](O)[C@H]3O)[C@H]3COC(=O)[C@H]23)OCO4)cc(OC)c1O [etoposide] + C[C@@H]1CCN(C(=O)CC#N)C[C@@H]1N(C)c1ncnc2[nH]ccc12 [CP690550] (first compound 0.02 µM, partner dose 1 µM)	110	98	96.3	105	80.7	128
CCN(CC)CCNC(=O)c1c(C)[nH]c(/C=C2\C(=O)Nc3ccc(F)cc32)c1C [sunitinib] + COc1cc(Nc2ncc(F)c(Nc3ccc4c(n3)NC(=O)C(C)(C)O4)n2)cc(OC)c1OC [Tamatinib] (first compound 0.4 µM, partner dose 0.4 µM)	90	116	65.6	84.2	96.3	111
COc1cc([C@@H]2c3cc4c(cc3[C@@H](O[C@@H]3O[C@@H]5CO[C@@H](C)O[C@H]5[C@H](O)[C@H]3O)[C@H]3COC(=O)[C@H]23)OCO4)cc(OC)c1O [etoposide] + O=C(O)[C@@H]1[O][Sb](=[O])([O][Sb]2(=[O])[O][C@H]([C@H](O)CO)[C@H](O)[C@H](C(=O)O)[O]2)[O][C@H]([C@H](O)CO)[C@@H]1O [stibogluconate] (first compound 0.02 µM, partner dose 2 µM)	83	86.9	85.3	85.9	92.5	87.2
COc1cc([C@@H]2c3cc4c(cc3[C@@H](O[C@@H]3O[C@@H]5CO[C@@H](C)O[C@H]5[C@H](O)[C@H]3O)[C@H]3COC(=O)[C@H]23)OCO4)cc(OC)c1O [etoposide] + Oc1nc(-c2ccc(C(F)(F)F)cc2)nc2c1CSCC2 [XAV939] (first compound 0.02 µM, partner dose 2 µM)		61.9	94.3	88.2	97.5	97.9
Cn1cnc2c(F)c(Nc3ccc(Br)cc3Cl)c(C(=O)NOCCO)cc21 [selumetinib] + NC1(c2ccc(-c3nc4ccn5c(=O)[nH]nc5c4cc3-c3ccccc3)cc2)CCC1 [MK2206] (first compound 0.015 µM, partner dose 0.4 µM)	59	95.5	86.4	72	56.3	103
C[C@]1(O)C[C@@H](c2nc(-c3ccc4ccc(-c5ccccc5)nc4c3)c3c(N)nccn32)C1 + CS(=O)(=O)c1ccc(C(=O)Nc2ccc(Cl)c(-c3ccccn3)c2)c(Cl)c1 [vismodegib] (first compound 0.4 µM, partner dose 1 µM)	92.4	107	78.6	85.8	88.1	87.6
COc1cc([C@@H]2c3cc4c(cc3[C@@H](O[C@@H]3O[C@@H]5CO[C@@H](C)O[C@H]5[C@H](O)[C@H]3O)[C@H]3COC(=O)[C@H]23)OCO4)cc(OC)c1O [etoposide] + NCC(=O)Nc1ccc(-n2nc(C(F)(F)F)cc2-c2ccc3c(ccc4ccccc43)c2)cc1 [OSU03012] (first compound 0.02 µM, partner dose 1 µM)	84.4	88.9	91.2	51	98.6	59.6
COc1cc([C@@H]2c3cc4c(cc3[C@@H](O[C@@H]3O[C@@H]5CO[C@@H](C)O[C@H]5[C@H](O)[C@H]3O)[C@H]3COC(=O)[C@H]23)OCO4)cc(OC)c1O [etoposide] + Nc1nc(F)nc2c1ncn2[C@@H]1O[C@H](CO)[C@@H](O)[C@@H]1O [fludarabine] (first compound 0.02 µM, partner dose 0.2 µM)	88.7	95.1	85.3	38.7	102	59.3
COc1cc([C@@H]2c3cc4c(cc3[C@@H](O[C@@H]3O[C@@H]5CO[C@@H](C)O[C@H]5[C@H](O)[C@H]3O)[C@H]3COC(=O)[C@H]23)OCO4)cc(OC)c1O [etoposide] + OCc1c[nH]c2ccccc12 [Indole-3-carbinol] (first compound 0.02 µM, partner dose 0.8 µM)	87.3	88	94.1	104	89.6	96
C[C@]1(O)C[C@@H](c2nc(-c3ccc4ccc(-c5ccccc5)nc4c3)c3c(N)nccn32)C1 + Clc1ccc(Nc2nnc(Cc3ccncc3)c3ccccc23)cc1 [vatalanib] (first compound 0.4 µM, partner dose 2 µM)	104	96.2	79.5	96.2	94.5	113
Cn1cnc2c(F)c(Nc3ccc(Br)cc3Cl)c(C(=O)NOCCO)cc21 [selumetinib] + CCN(CC)CCNC(=O)c1c(C)[nH]c(/C=C2\C(=O)Nc3ccc(F)cc32)c1C [sunitinib] (first compound 0.015 µM, partner dose 0.4 µM)	83.1	131	76.4	57.3	95.5	113
C[C@]1(O)C[C@@H](c2nc(-c3ccc4ccc(-c5ccccc5)nc4c3)c3c(N)nccn32)C1 + CCCCCCCCc1ccc(CCC(N)(CO)CO)cc1 [fingolimod] (first compound 0.4 µM, partner dose 2 µM)	90.7	74	65	74.5	113	97.7
COc1cc([C@@H]2c3cc4c(cc3[C@@H](O[C@@H]3O[C@@H]5CO[C@@H](C)O[C@H]5[C@H](O)[C@H]3O)[C@H]3COC(=O)[C@H]23)OCO4)cc(OC)c1O [etoposide] + O=C(O)c1ccc2c(c1)nc(Nc1cccc(Cl)c1)c1ccncc12 [CX4945] (first compound 0.02 µM, partner dose 0.4 µM)	103	98.2	99.2	92.2	81.7	102
